Consider 115 sequences from the BET-seq Pho4 binding data (Le et al. 2018).

This is one part of the list. These are noisy estimates, calculated here from bound and input reads.

This assay concerns the target T1, Pho4 (S. cerevisiae) (UniProt P07270).
T1 sequence: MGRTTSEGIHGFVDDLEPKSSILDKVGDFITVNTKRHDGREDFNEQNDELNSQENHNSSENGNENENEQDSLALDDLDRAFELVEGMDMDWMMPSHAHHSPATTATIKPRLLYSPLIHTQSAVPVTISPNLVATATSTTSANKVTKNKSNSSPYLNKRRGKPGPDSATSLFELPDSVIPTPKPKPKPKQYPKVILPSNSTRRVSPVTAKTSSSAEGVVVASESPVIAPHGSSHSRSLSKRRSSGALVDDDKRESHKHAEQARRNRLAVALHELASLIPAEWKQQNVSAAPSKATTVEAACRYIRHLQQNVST
Put plainly: relative binding free energy (BET-seq); higher = weaker binding. The note with it: reference: library average.
As to CTATGCACGTGGTGGT, the “relative binding free energy” value is -0.17 kcal/mol.

Consider CATGTCACGTGTATAG, for which the “relative binding free energy” value came to 0.12 kcal/mol.

As to ATATTCACGTGGTCGG, the “relative binding free energy” value turned out to be 0.15 kcal/mol.

As to ATGGTCACGTGGAGTG, the “relative binding free energy” value is 0.13 kcal/mol.

Regarding GGGATCACGTGAAGCG, the “relative binding free energy” value came out at 0.31 kcal/mol.

For AGCTCCACGTGGGTGG, the “relative binding free energy” value was -0.22 kcal/mol.

Take CAGCACACGTGTGGGG: the “relative binding free energy” value was determined as 0.3 kcal/mol.

For TTGCACACGTGTTCGG, the “relative binding free energy” value is 0.01 kcal/mol.

In the case of GATTTCACGTGATTAT, the “relative binding free energy” value turned out to be 0.35 kcal/mol.

With ATTCTCACGTGCAGGG, the “relative binding free energy” value worked out at 0.37 kcal/mol.

With AGGTGCACGTGATATA, the “relative binding free energy” value was -0.07 kcal/mol.

TACTGCACGTGGTGTG: the “relative binding free energy” value is -0.05 kcal/mol.

Turning to CGTGACACGTGTTATG, the “relative binding free energy” value came out at 0 kcal/mol.

Consider GTGGGCACGTGTCAAG, for which the “relative binding free energy” value was -0.05 kcal/mol.

For the sequence TCGGTCACGTGCTAGT, the “relative binding free energy” value stood at 0.06 kcal/mol.

With GTGCTCACGTGAGGGA, the “relative binding free energy” value amounted to 0.31 kcal/mol.

As for TTGTACACGTGCAGGG, the “relative binding free energy” value was -0.03 kcal/mol.

In the case of TTTGCCACGTGTTGGG, the “relative binding free energy” value was 0.02 kcal/mol.

In the case of GGAGGCACGTGCTGGA, the “relative binding free energy” value was -0.11 kcal/mol.

As to TAGTGCACGTGGACTT, the “relative binding free energy” value worked out at 0.04 kcal/mol.

Turning to AGGTTCACGTGTGGAA, the “relative binding free energy” value stood at 0.37 kcal/mol.

Regarding GGTACCACGTGGGTTT, the “relative binding free energy” value is 0.01 kcal/mol.

On to ATTATCACGTGCGAGT, for which the “relative binding free energy” value came to 0.06 kcal/mol.

Consider TTTCTCACGTGAGAAG, for which the “relative binding free energy” value turned out to be 0.49 kcal/mol.

Turning to GGAGGCACGTGTTCAG, the “relative binding free energy” value is -0.21 kcal/mol.

Consider GCGGTCACGTGATCGG, for which the “relative binding free energy” value was found to be 0.34 kcal/mol.

As to AGGCGCACGTGAGTGT, the “relative binding free energy” value is 0.14 kcal/mol.

On to TGAGCCACGTGTGAGG, for which the “relative binding free energy” value is -0.05 kcal/mol.

As for AAGGGCACGTGGGCAA, the “relative binding free energy” value was -0.28 kcal/mol.

Take AGGTTCACGTGGTGGT: the “relative binding free energy” value was 0.27 kcal/mol.

With AGAGGCACGTGTCGTT, the “relative binding free energy” value is -0.04 kcal/mol.

For the sequence GCACGCACGTGTTGGG, the “relative binding free energy” value was 0.07 kcal/mol.

For the sequence TGTTTCACGTGGGTAA, the “relative binding free energy” value worked out at 0.26 kcal/mol.

As for TTGTGCACGTGATGTA, the “relative binding free energy” value worked out at 0.04 kcal/mol.

Take TAAGGCACGTGTTTGC: the “relative binding free energy” value is -0.14 kcal/mol.

As to TAATACACGTGATTTT, the “relative binding free energy” value turned out to be 0.12 kcal/mol.

Consider ATGCTCACGTGGAGGT, for which the “relative binding free energy” value turned out to be 0.11 kcal/mol.

Consider GGATTCACGTGTGCAG, for which the “relative binding free energy” value was found to be 0.25 kcal/mol.

As to ATCAGCACGTGTGTTA, the “relative binding free energy” value came out at 0.02 kcal/mol.

For the sequence CTCGGCACGTGATTGT, the “relative binding free energy” value is -0.01 kcal/mol.

With AATTTCACGTGGTGTC, the “relative binding free energy” value was determined as 0.15 kcal/mol.

For the sequence GTTTTCACGTGATACT, the “relative binding free energy” value was found to be 0.39 kcal/mol.

Take GTGAGCACGTGTGTGT: the “relative binding free energy” value was -0.07 kcal/mol.

Take ATCGTCACGTGTTTGG: the “relative binding free energy” value is 0.06 kcal/mol.

Consider TGTGGCACGTGTGTCA, for which the “relative binding free energy” value is -0.04 kcal/mol.

For the sequence CGTATCACGTGGGTCG, the “relative binding free energy” value came out at 0.1 kcal/mol.

With TGGAGCACGTGTTAAG, the “relative binding free energy” value is 0.1 kcal/mol.

GGATTCACGTGTATGG: the “relative binding free energy” value was 0.39 kcal/mol.

TGCCGCACGTGGTTGG: the “relative binding free energy” value was -0.14 kcal/mol.

Regarding TTGTACACGTGTAAAT, the “relative binding free energy” value is 0.18 kcal/mol.

For the sequence GTACGCACGTGGGGGC, the “relative binding free energy” value was -0.29 kcal/mol.

GATGACACGTGGGTGG: the “relative binding free energy” value was determined as 0.03 kcal/mol.

In the case of ATTTCCACGTGTGTAT, the “relative binding free energy” value came out at 0.21 kcal/mol.

As for AATGTCACGTGTTTGT, the “relative binding free energy” value was determined as 0.13 kcal/mol.

For the sequence TGTGGCACGTGCGGGC, the “relative binding free energy” value is -0.18 kcal/mol.

Regarding TTGTTCACGTGTTCAG, the “relative binding free energy” value is 0.34 kcal/mol.

Turning to TGGTTCACGTGCCGGG, the “relative binding free energy” value was found to be 0.16 kcal/mol.

On to AGGCGCACGTGCGGTA, for which the “relative binding free energy” value was -0.15 kcal/mol.

In the case of GAGGTCACGTGGCGCG, the “relative binding free energy” value is 0.01 kcal/mol.

For TACGTCACGTGGGTTA, the “relative binding free energy” value is -0.25 kcal/mol.

On to GCTGGCACGTGAGGTG, for which the “relative binding free energy” value is 0.2 kcal/mol.

For GAGGCCACGTGTGTGA, the “relative binding free energy” value was determined as 0.01 kcal/mol.

TTTTACACGTGATGAA: the “relative binding free energy” value was 0.18 kcal/mol.

As to GGGATCACGTGGCGGT, the “relative binding free energy” value amounted to 0.22 kcal/mol.

ACATACACGTGTGTGG: the “relative binding free energy” value was -0.06 kcal/mol.

As for AATTTCACGTGCTGTT, the “relative binding free energy” value came to 0.08 kcal/mol.

For the sequence AGCGGCACGTGTGGGA, the “relative binding free energy” value is -0.02 kcal/mol.

As for AGTCTCACGTGTGCGG, the “relative binding free energy” value is 0.09 kcal/mol.

In the case of GATGGCACGTGGGTAT, the “relative binding free energy” value was -0.08 kcal/mol.

In the case of GGGTACACGTGGTAAT, the “relative binding free energy” value amounted to 0.01 kcal/mol.

For AAGATCACGTGTCGGG, the “relative binding free energy” value was 0.17 kcal/mol.

For TCGAACACGTGTGGGG, the “relative binding free energy” value is -0.01 kcal/mol.

Consider AACGGCACGTGGTTGG, for which the “relative binding free energy” value is -0.06 kcal/mol.

For the sequence GGATTCACGTGGTAGG, the “relative binding free energy” value worked out at 0.28 kcal/mol.

Consider AAGCACACGTGGTTGG, for which the “relative binding free energy” value is 0.17 kcal/mol.

As for TCTGGCACGTGTGGCG, the “relative binding free energy” value came to 0.05 kcal/mol.

Take GCCTACACGTGGGGGA: the “relative binding free energy” value is 0.16 kcal/mol.

As to TATTTCACGTGAAGCG, the “relative binding free energy” value was 0.33 kcal/mol.

As for ATATGCACGTGATGGT, the “relative binding free energy” value worked out at 0.1 kcal/mol.

Take GGGATCACGTGTAGTT: the “relative binding free energy” value came out at 0.05 kcal/mol.

With AGTCGCACGTGTTTTG, the “relative binding free energy” value is -0.15 kcal/mol.

For CTGTTCACGTGTTGTC, the “relative binding free energy” value amounted to 0.17 kcal/mol.

For the sequence TACTTCACGTGGCTGG, the “relative binding free energy” value is 0.3 kcal/mol.

TGATGCACGTGGGTGC: the “relative binding free energy” value is -0.21 kcal/mol.

On to GATGTCACGTGTTGTC, for which the “relative binding free energy” value is 0.12 kcal/mol.

For GGCGTCACGTGTAAGT, the “relative binding free energy” value was 0.16 kcal/mol.

For CTATTCACGTGCGGGG, the “relative binding free energy” value is 0.08 kcal/mol.

Consider ACTATCACGTGTTTTT, for which the “relative binding free energy” value worked out at 0.24 kcal/mol.

In the case of TGATTCACGTGGTGAA, the “relative binding free energy” value worked out at 0.11 kcal/mol.

For GGATCCACGTGGCGTG, the “relative binding free energy” value turned out to be 0.02 kcal/mol.

Regarding TTTCGCACGTGGTGCG, the “relative binding free energy” value was -0.17 kcal/mol.

TTGAGCACGTGGAAAT: the “relative binding free energy” value turned out to be 0.11 kcal/mol.

Consider GTGGGCACGTGCGGAC, for which the “relative binding free energy” value is -0.04 kcal/mol.

For TGGTCCACGTGAAGGA, the “relative binding free energy” value was determined as 0.26 kcal/mol.

For the sequence ATGTTCACGTGAGTTC, the “relative binding free energy” value was determined as 0.39 kcal/mol.

Turning to GGTGTCACGTGAGTTA, the “relative binding free energy” value worked out at 0.37 kcal/mol.

Regarding CGTGTCACGTGGTTTA, the “relative binding free energy” value was -0.03 kcal/mol.

With TTGTACACGTGTACAT, the “relative binding free energy” value came out at 0.14 kcal/mol.

Consider GAGGGCACGTGGACAG, for which the “relative binding free energy” value is -0.15 kcal/mol.

On to TGTCGCACGTGGTATG, for which the “relative binding free energy” value is -0.16 kcal/mol.

Consider TATCTCACGTGTGTCG, for which the “relative binding free energy” value turned out to be 0.31 kcal/mol.

Consider AGTTTCACGTGTATAA, for which the “relative binding free energy” value came out at 0.27 kcal/mol.

As to TTTACCACGTGGGGTA, the “relative binding free energy” value is -0.22 kcal/mol.

For the sequence ATGTTCACGTGTGATG, the “relative binding free energy” value stood at 0.33 kcal/mol.

With TGTTCCACGTGATAGG, the “relative binding free energy” value stood at 0.1 kcal/mol.

With AGTTTCACGTGCTTGC, the “relative binding free energy” value came to 0.28 kcal/mol.

TCATTCACGTGTAGGC: the “relative binding free energy” value came out at 0.3 kcal/mol.

As to GCGCTCACGTGGTGTT, the “relative binding free energy” value came to 0.09 kcal/mol.

ATTATCACGTGAATAA: the “relative binding free energy” value was 0.37 kcal/mol.

With CTAGGCACGTGGGCTG, the “relative binding free energy” value is -0.17 kcal/mol.

Turning to TTAGGCACGTGATCTT, the “relative binding free energy” value was -0.02 kcal/mol.

Regarding TTGGTCACGTGCTAGT, the “relative binding free energy” value is 0.08 kcal/mol.

TGAGACACGTGATGGC: the “relative binding free energy” value came to 0.26 kcal/mol.

On to TTTGCCACGTGTTGTG, for which the “relative binding free energy” value is -0.17 kcal/mol.

Take GGGAACACGTGCTGGA: the “relative binding free energy” value worked out at 0.01 kcal/mol.
